PMC4336329 (PLoS ONE, 2015)
The campaign covered roughly 310,000 compounds. About 2,200 (0.71%) showed an effect of 50% or more. Effects have a minus sign here. This is one part of the list.

Target: human ether-à-go-go-related gene (hERG) potassium channel (human, UniProt Q12809)
Test: primary screen, population patch clamp on CHO cells stably expressing hERG

Sequence of human ether-à-go-go-related gene (hERG) potassium channel (Q12809 whole entry, looked up): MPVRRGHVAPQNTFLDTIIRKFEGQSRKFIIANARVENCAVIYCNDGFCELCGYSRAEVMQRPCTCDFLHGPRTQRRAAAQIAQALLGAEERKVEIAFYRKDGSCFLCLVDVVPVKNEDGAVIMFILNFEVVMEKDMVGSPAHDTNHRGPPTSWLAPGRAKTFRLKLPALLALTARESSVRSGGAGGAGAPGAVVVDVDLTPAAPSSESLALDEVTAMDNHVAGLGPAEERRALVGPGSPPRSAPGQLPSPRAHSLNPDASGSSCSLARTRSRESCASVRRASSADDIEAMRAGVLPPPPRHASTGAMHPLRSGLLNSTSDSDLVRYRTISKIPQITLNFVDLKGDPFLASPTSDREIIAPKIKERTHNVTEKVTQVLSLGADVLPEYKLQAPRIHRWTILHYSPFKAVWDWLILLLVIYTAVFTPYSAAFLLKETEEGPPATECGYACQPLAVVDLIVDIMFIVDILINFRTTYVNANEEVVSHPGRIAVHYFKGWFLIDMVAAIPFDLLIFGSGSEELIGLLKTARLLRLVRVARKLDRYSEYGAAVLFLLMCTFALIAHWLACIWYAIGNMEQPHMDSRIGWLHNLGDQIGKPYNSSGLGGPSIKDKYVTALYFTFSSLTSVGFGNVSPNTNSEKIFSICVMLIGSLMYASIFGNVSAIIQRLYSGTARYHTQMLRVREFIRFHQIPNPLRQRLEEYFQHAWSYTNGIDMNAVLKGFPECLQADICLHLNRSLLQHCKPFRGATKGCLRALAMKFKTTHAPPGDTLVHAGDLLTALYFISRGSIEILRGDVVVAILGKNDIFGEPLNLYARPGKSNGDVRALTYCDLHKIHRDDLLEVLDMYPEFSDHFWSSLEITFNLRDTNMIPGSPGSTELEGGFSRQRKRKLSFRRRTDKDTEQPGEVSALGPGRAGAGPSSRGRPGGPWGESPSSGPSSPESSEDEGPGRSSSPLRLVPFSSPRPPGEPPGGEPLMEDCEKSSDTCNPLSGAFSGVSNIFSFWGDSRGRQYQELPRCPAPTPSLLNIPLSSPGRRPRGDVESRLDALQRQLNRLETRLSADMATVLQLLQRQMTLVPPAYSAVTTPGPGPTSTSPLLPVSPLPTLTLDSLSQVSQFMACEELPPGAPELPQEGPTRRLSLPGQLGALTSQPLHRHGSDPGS

| Compound | hERG current change (%, negative = inhibition) at 1uM [%] |
| --- | --- |
| O=C(Nc1nc2ccccc2[nH]1)c1cccc([N+](=O)[O-])c1 | 14.6 |
| CCOCCCNC(=O)Cc1c(C(=O)O)[nH]c2ccc(Cl)cc12 | 6.44 |
| CC(=O)Nc1ccc(C(=O)OCC(=O)N2CCN(C(=O)c3ccco3)CC2)cc1 | 7.29 |
| COCCn1c(SCC(=O)N2CCOCC2)nnc1-c1ccncc1 | 7.79 |
| COc1ccc(C(=O)NC2CC2)cc1OC1CCN(C/C=C/c2ccccc2)CC1 | -84.3 |
| CCOC(=O)C(C)CC(C)C(=O)N1CCOCCOCCN(C(=O)C(C)CC(C)C(=O)OCC)CCOCC1 (stereo not shown) | 5.45 |
| COc1cc2c(cc1OC)C(=S)NC(C)(C)C2 | 14.8 |
| CNc1nnc(-c2cc3cc(Cl)ccc3oc2=O)s1 | 7.33 |
| Cc1ccc(S(=O)(=O)N2CCN(C(=O)CCn3cncn3)CC2)cc1 | 3.76 |
| O=C(Cn1cnc([N+](=O)[O-])n1)NC1CC1 | 10.4 |
| C/C(=C\C(=O)C(F)(F)F)Nc1ccc(C)cc1 | 9.13 |
| COc1ccccc1NC(=O)CSc1nnc(-c2ccncc2)n1CC1CCCO1 (stereo not shown) | 4.17 |
| c1ccc(-c2cn3c(n2)CCc2ccc4cccnc4c2-3)cc1 | 1.62 |
| O=C(CSc1nnc(-c2c[nH]c3ccccc23)o1)NCC1CCCO1 (stereo not shown) | 14.4 |
| COC(=O)c1c(NC(=O)c2ccco2)sc2c1CCC2 | 18.8 |
| CCCNC(=O)CSc1nc(Cc2ccccc2)nc2ccccc12 | 5.1 |
| CN(C)CCN(C(=O)c1cccc(Cl)c1)c1nc2c(Cl)cccc2s1.Cl | -0.637 |
| COC(=O)c1cc(NC(=O)c2c(F)c(F)c(F)c(F)c2F)cc(C(=O)OC)c1 | 13.5 |
| CCOc1ccc(N(CC(=O)NCCSc2ccccn2)S(=O)(=O)c2ccc(Cl)cc2)cc1 | 9.55 |
| CO/N=C/CC(=O)c1cnc(-c2ccc(Cl)cc2)s1 | 7.46 |
| COc1cc(-c2nnc(SCC(=O)N(C)C3CCS(=O)(=O)C3)o2)cc(OC)c1OC (stereo not shown) | 10.6 |
| O=C(CCS(=O)(=O)c1ccccc1)Nc1ccccc1-c1nc2ccccc2s1 | 17.2 |
| O=C(O)C1=C[C@@H](c2ccc(C(F)(F)F)cc2)C[C@@H](OCc2ccc(CO)cc2)O1 | 16.6 |
| COc1ccccc1C(C(=O)NC1CCCC1)N(C(=O)c1csnn1)C1CC1 (stereo not shown) | 12.1 |
| Cn1cccc1C(=O)NC1CCCCC1 | 5.24 |
| Nc1ncnc(NC2CCS(=O)(=O)C2)c1[N+](=O)[O-] (stereo not shown) | -2.55 |
| Cc1coc2c(C)c3oc(=O)c4c(c3cc12)CCCC4 | 12.3 |
| CN1CCCN(Cc2ccc(Cl)cc2Cl)CC1 | -13.8 |

| Compound | hERG current change (%, negative = inhibition) at 1uM [%] |
| --- | --- |
| CC(C)(C)CC(C)(C)NC(=S)Nc1ccc2nc(-c3ccccn3)c(-c3ccccn3)nc2c1 | 2.06 |
| Cc1cc(C(=O)Nc2ccc(C)c(C)c2)n(-c2ccccc2)n1 | 10.5 |
| COCCn1c(=S)[nH]c2cc(C(=O)N3CCC(C(N)=O)(N4CCCCC4)CC3)ccc2c1=O | 4.92 |
| COc1ccc(-c2cnc3nc(/N=C/N(C)C)nn3c2/N=C/N(C)C)cc1 | 6.59 |
| COC(=O)c1ccc(Sc2ccccc2NS(=O)(=O)c2ccc(OC)cc2)nc1 | 11 |
| Cc1ccccc1NC(=O)NNC(=O)c1ccc2ccccc2c1 | 15.8 |
| COc1ccc2nc(COC(=O)c3cccs3)c(C(C)=O)[n+]([O-])c2c1 | 9.07 |
| COc1cccc(S(=O)(=O)NCc2ccc(C(=O)Nc3ccc(Cl)cc3)cc2)c1 | 5.08 |
| Cc1c(OCC(=O)NCc2cccnc2)ccc2c3c(c(=O)oc12)CCCC3 | 11 |
| O=C(O)c1ccc(N2C(=O)CC(SC(=NCc3ccc4c(c3)OCO4)Nc3ccc(F)cc3)C2=O)cc1 (stereo not shown) | 21.9 |
| Nc1nc(NCCO)nc(NCC2CCCO2)c1[N+](=O)[O-] (stereo not shown) | 11.1 |
| CCc1nnc(NC(=O)CN2CCN(Cc3cccc(OC)c3)CC2)s1 | 4.66 |
| O=C(COC(=O)CCc1nc2ccccc2n1-c1ccccc1)Nc1ccc(N2CCCCC2)cc1 | 10.6 |
| COC(=O)c1ccc(CNC(=O)COC(=O)C23CC4CC(CC(C4)C2)C3)cc1 | 10.3 |
| Cc1ccc(OCC(=O)Nc2ccc(C(=O)O)cc2NC(=O)COc2ccc(C)c(C)c2)cc1C | 14.1 |
| Cc1ccc(NC(=O)CN(C)C(=O)C(Sc2ccccc2)c2ccccc2)cc1 (stereo not shown) | 9.16 |
| CC(=O)c1ccc(N2CCN(CC(O)c3ccccc3)CC2)cc1 (stereo not shown) | 0.0358 |
| CCN(CC)c1ccc(C(=O)OCC(=O)Nc2cc3oc4ccccc4c3cc2OC)cc1 | 10.7 |
| O=C(COC(=O)CCc1ccc(S(=O)(=O)N2CCOCC2)cc1)NC1CCCCCC1 | -2.65 |
| CC#CC(=O)N1CCCC(Cc2cccc(OC)c2)(C(=O)OCC)C1 (stereo not shown) | 21.4 |
| O=C(NC(=S)Nc1ccc(C(=O)N2CCOCC2)cc1)c1ccc([N+](=O)[O-])cc1 | 18.3 |
| Cc1csc(NC(=O)c2ccc(Cn3nc(C)c(Br)c3C)o2)n1 | 7.27 |
| COc1cccc(C2c3c(oc4ccc(Cl)cc4c3=O)C(=O)N2c2cc(C)on2)c1OC (stereo not shown) | 8.41 |
| CCC(C)NC(=O)Cn1cccc1C(=O)c1ccccc1 (stereo not shown) | -0.844 |
| CN1CCN(CCCC(=O)c2ccc(F)cc2)CC1.Cl | -1.2 |
| CN(C)CCn1c(=O)n(-c2ccc(F)cc2)c(=O)c2c3c(sc21)CCCCC3 | 7.59 |
| CCn1c(NCc2ccccn2)nc2ccccc21 | 9.53 |
